# The list shows a part of the results.
# B1: Gal 3 (Homo sapiens), P17931 (protein)
# chain: MADNFSLHDALSGSGNPNPQGWPGAWGNQPAGAGGYPGASYPGAYPGQAPPGAYPGQAPPGAYHGAPGAYPGAPAPGVYPGPPSGPGAYPSSGQPSAPGAYPATGPYGAPAGPLIVPYNLPLPGGVVPRMLITILGTVKPNANRIQLDFQRGNDVAFHFNPRFNENNRRVIVCNTKLDNNWGREERQSVFPFESGKPFKIQVLVEPDHFKVAVNDAHLLQYNHRVKKLNEISKLGISGDIDLTSASYTMI
# Tests used:
# Experiment in all cases: glycan array binding signal (z-score within array); higher = stronger binding
# Conditions in all cases: glycan notation: IUPAC condensed, linker removed; mutation: A146Q
# [1] = target: Gal3S(b1-4)[Fuc(a1-3)]Glc
# Outline: (§1)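 Glycan array binding is given as a within-array Z-score, which can be read as non-binding when negative. The arrays, 3228 of them, came from the Consortium for Functional Glycomics database and were retained only where the protein sequence was available. Z-scores were averaged across arrays of the same protein sequence at different concentrations or buffers and across linkers.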
# [2] = target: Gal3S(b1-4)[Fuc(a1-3)]Glc6S
# Outline: as §1
# [3] = target: Gal3S4S(b1-4)GlcNAc
# Outline: as §1
# [4] = target: Gal3S6S(b1-4)GlcNAc
# Outline: as §1
# [5] = target: Gal3S6S(b1-4)GlcNAc6S
# Outline: as §1
# [6] = target: Gal4S(b1-4)GlcNAc
# Outline: as §1
# [7] = target: Gal4S6S(b1-4)GlcNAc
# Outline: as §1
# [8] = target: Gal6S(b1-4)Glc
# Outline: as §1
# [9] = target: Gal6S(b1-4)Glc6S
# Outline: as §1
# [10] = target: Gal6S(b1-4)GlcNAc
# Outline: as §1
# [11] = target: Gal6S(b1-4)GlcNAc6S
# Outline: as §1
# [12] = target: GalNAc(a1-3)Gal
# Outline: as §1
# [13] = target: GalNAc(a1-3)GalNAc
# Outline: as §1
# [14] = target: GalNAc(a1-3)GalNAc(a1-3)Gal(a1-4)Gal(b1-4)GlcNAc
# Outline: as §1
# [15] = target: GalNAc(b1-3)Gal
# Outline: as §1
# [16] = target: GalNAc(b1-3)Gal(a1-4)Gal(b1-4)GlcNAc
# Outline: as §1
# [17] = target: GalNAc(b1-3)Gal(a1-4)Gal(b1-4)GlcNAc(b1-3)Gal(b1-4)Glc
# Outline: as §1
# [18] = target: GalNAc(b1-3)Gal(a1-6)Gal(b1-4)Glc
# Outline: as §1
# [19] = target: GalNAc(b1-3)GalNAc
# Outline: as §1
# [20] = target: GalNAc(b1-4)GlcNAc
# Outline: as §1
# [21] = target: GalNAc(b1-4)GlcNAc(b1-2)Man(a1-3)[GalNAc(b1-4)GlcNAc(b1-2)Man(a1-6)]Man(b1-4)GlcNAc(b1-4)GlcNAc
# Outline: as §1
# [22] = target: Glc(a1-4)Glc
# Outline: as §1
# [23] = target: Glc(a1-6)Glc(a1-6)Glc
# Outline: as §1
# [24] = target: Glc(b1-4)Glc
# Outline: as §1
# [25] = target: Glc(b1-6)Glc
# Outline: as §1
# [26] = target: GlcA(b1-3)Gal
# Outline: as §1
# [27] = target: GlcA(b1-3)GlcNAc
# Outline: as §1
# [28] = target: GlcA(b1-6)Gal
# Outline: as §1
# [29] = target: GlcNAc(a1-3)Gal(b1-4)GlcNAc
# Outline: as §1
# [30] = target: GlcNAc(a1-4)Gal(b1-3)GlcNAc
# Outline: as §1
# [31] = target: GlcNAc(a1-4)Gal(b1-4)GalNAc
# Outline: as §1
# [32] = target: GlcNAc(a1-4)Gal(b1-4)GlcNAc
# Outline: as §1
# [33] = target: GlcNAc(a1-4)Gal(b1-4)GlcNAc(b1-3)Gal(b1-4)Glc
# Outline: as §1
# [34] = target: GlcNAc(a1-4)Gal(b1-4)GlcNAc(b1-3)Gal(b1-4)GlcNAc
# Outline: as §1
# [35] = target: GlcNAc(a1-4)Gal(b1-4)GlcNAc(b1-3)Gal(b1-4)GlcNAc(b1-3)Gal(b1-4)GlcNAc
# Outline: as §1
# [36] = target: GlcNAc(a1-4)Gal(b1-4)GlcNAc(b1-3)Gal(b1-4)[Fuc(a1-3)]GlcNAc(b1-3)Gal(b1-4)[Fuc(a1-3)]GlcNAc
# Outline: as §1
# [37] = target: GlcNAc(a1-6)Gal(b1-4)GlcNAc
# Outline: as §1
# [38] = target: GlcNAc(b1-2)Gal(b1-3)GalNAc
# Outline: as §1
# [39] = target: GlcNAc(b1-2)Man(a1-3)[GlcNAc(b1-2)Man(a1-6)]Man(b1-4)GlcNAc(b1-4)GlcNAc
# Outline: as §1
# [40] = target: GlcNAc(b1-2)Man(a1-3)[GlcNAc(b1-2)Man(a1-6)]Man(b1-4)GlcNAc(b1-4)[Fuc(a1-6)]GlcNAc
# Outline: as §1
# [41] = target: GlcNAc(b1-2)[GlcNAc(b1-4)]Man(a1-3)[GlcNAc(b1-2)Man(a1-6)]Man(b1-4)GlcNAc(b1-4)GlcNAc
# Outline: as §1
# [42] = target: GlcNAc(b1-3)Gal
# Outline: as §1
# [43] = target: GlcNAc(b1-3)Gal(b1-3)GalNAc
# Outline: as §1
# [44] = target: GlcNAc(b1-3)Gal(b1-4)Glc
# Outline: as §1
# [45] = target: GlcNAc(b1-3)Gal(b1-4)GlcNAc
# Outline: as §1
binder,measurement,setting,value
B1,glycan array binding signal (z-score),[1],-0.195
same,glycan array binding signal (z-score),[2],-0.195
same,glycan array binding signal (z-score),[3],-0.195
same,glycan array binding signal (z-score),[4],-0.195
same,glycan array binding signal (z-score),[5],-0.168
same,glycan array binding signal (z-score),[6],-0.13
same,glycan array binding signal (z-score),[7],-0.202
same,glycan array binding signal (z-score),[8],-0.157
same,glycan array binding signal (z-score),[9],-0.196
same,glycan array binding signal (z-score),[10],-0.18
same,glycan array binding signal (z-score),[11],-0.192
same,glycan array binding signal (z-score),[12],-0.104
same,glycan array binding signal (z-score),[13],-0.193
same,glycan array binding signal (z-score),[14],-0.185
same,glycan array binding signal (z-score),[15],-0.2
same,glycan array binding signal (z-score),[16],-0.203
same,glycan array binding signal (z-score),[17],-0.179
same,glycan array binding signal (z-score),[18],-0.184
same,glycan array binding signal (z-score),[19],-0.182
same,glycan array binding signal (z-score),[20],-0.183
same,glycan array binding signal (z-score),[21],-0.194
same,glycan array binding signal (z-score),[22],-0.2
same,glycan array binding signal (z-score),[23],-0.198
same,glycan array binding signal (z-score),[24],-0.101
same,glycan array binding signal (z-score),[25],-0.178
same,glycan array binding signal (z-score),[26],-0.192
same,glycan array binding signal (z-score),[27],-0.2
same,glycan array binding signal (z-score),[28],-0.183
same,glycan array binding signal (z-score),[29],-0.199
same,glycan array binding signal (z-score),[30],-0.185
same,glycan array binding signal (z-score),[31],-0.198
same,glycan array binding signal (z-score),[32],-0.173
same,glycan array binding signal (z-score),[33],-0.199
same,glycan array binding signal (z-score),[34],-0.155
same,glycan array binding signal (z-score),[35],2.23
same,glycan array binding signal (z-score),[36],-0.158
same,glycan array binding signal (z-score),[37],-0.134
same,glycan array binding signal (z-score),[38],-0.198
same,glycan array binding signal (z-score),[39],-0.177
same,glycan array binding signal (z-score),[40],-0.197
same,glycan array binding signal (z-score),[41],-0.182
same,glycan array binding signal (z-score),[42],-0.198
same,glycan array binding signal (z-score),[43],-0.176
same,glycan array binding signal (z-score),[44],-0.195
same,glycan array binding signal (z-score),[45],-0.204
